“And” between values parts separate entries of the source, which are not always exact repeats. Equal values may be shown once. The source gives many values for each of these; only a part stands here.
Assay: Short-term stability of vitamin D3 and vitamin D3 palmitate in liquid vitamin formulations at 40° C. (HPLC assay)
Format: physicochemical
Procedure: In addition to the above, the vitamin formulation contains flavorants, stabilizer of vitamins, and about 1.0% polysorbate 80 as surfactant. As appreciated by the skilled artisan, appropriate overages of vitamins are included in order to assure meeting the label claims. The example composition contains 1.86:1 ratio by weight of glycerine to water. The pH is 5.0 which is adjusted by using an appropriate ratio of ascorbic acid to sodium ascorbate.
Vitamin D was analyzed by a HPLC assay as described by Matthew G. Sliva, et al., "Reversed-Phase Liquid Chromatographic Determination of Vitamin D in Infant Formulas and Enteral Nutritionals," J Assoc. Off. Anal. Chem., 75, 566, 1992, except that saponification conditions of 70° C. for 40 minutes were employed.
Stability of vitamins D3 and D3 palmitate were compared in various vitamin formulations containing different amounts of water and glycerin and at different pHs. The other ingredients and method of pH adjustment were as described in Example 1. The results are in Tables 2-5. Each batch number represents a different liquid vitamin formulation. The amount of glycerin varied between 650 and 850 mg/ml, depending upon the amount of water. "Vit" represents vitamin, "Desc." represents description,"Vit D3" represents vitamin D3, and "Vit D3P" or "D3 P" represents vitamin D3 palmitate. Table 1 lists the half-life (T50) values, i.e., time to degrade to 50% of the starting concentration of vitamins D3 and D3 palmitate at 40° C., These T50 values were calculated by fitting the data to first order degradation rate.

[1] = pH 5.0, 390 mg/ml water, age 16 weeks, Batch #13 (D3), #14 (D3 P)
[2] = pH 5.6, 252 mg/ml water, age 0 weeks, Batch #17 (D3), #18 (D3 P)
[3] = pH 5.6, 252 mg/ml water, age 1 week, Batch #17 (D3), #18 (D3 P)
[4] = pH 5.6, 252 mg/ml water, age 2 weeks, Batch #17 (D3), #18 (D3 P)
[5] = pH 5.6, 252 mg/ml water, age 4 weeks, Batch #17 (D3), #18 (D3 P)
[6] = pH 5.6, 252 mg/ml water, age 8 weeks, Batch #17 (D3), #18 (D3 P)
[7] = pH 5.6, 252 mg/ml water, age 12 weeks, Batch #17 (D3), #18 (D3 P)
[8] = pH 5.6, 252 mg/ml water, age 16 weeks, Batch #17 (D3), #18 (D3 P)
[9] = pH 5.6, 390 mg/ml water, age 0 weeks, Batch #19 (D3), #20 (D3 P)
[10] = pH 5.6, 390 mg/ml water, age 1 week, Batch #19 (D3), #20 (D3 P)
[11] = pH 5.6, 390 mg/ml water, age 2 weeks, Batch #19 (D3), #20 (D3 P)
[12] = pH 5.6, 390 mg/ml water, age 4 weeks, Batch #19 (D3), #20 (D3 P)
[13] = pH 5.6, 390 mg/ml water, age 8 weeks, Batch #19 (D3), #20 (D3 P)
[14] = pH 5.6, 390 mg/ml water, age 12 weeks, Batch #19 (D3), #20 (D3 P)
[15] = pH 5.6, 390 mg/ml water, age 16 weeks, Batch #19 (D3), #20 (D3 P)

Compound | Vitamin D content on storage [1] | Vitamin D content on storage [2] | Vitamin D content on storage [3] | Vitamin D content on storage [4] | Vitamin D content on storage [5] | Vitamin D content on storage [6] | Vitamin D content on storage [7] | Vitamin D content on storage [8] | Vitamin D content on storage [9] | Vitamin D content on storage [10] | Vitamin D content on storage [11] | Vitamin D content on storage [12] | Vitamin D content on storage [13] | Vitamin D content on storage [14] | Vitamin D content on storage [15] | Vitamin D content on storage (pH 5.0, 390 mg/ml water, age 12 weeks, Batch #13 (D3), #14 (D3 P)) | Vitamin D content on storage (pH 5.0, 435 mg/ml water, age 8 weeks, Batch #15 (D3), #16 (D3 P)) [IU/ml] | Vitamin D content on storage (pH 5.0, 435 mg/ml water, age 12 weeks, Batch #15 (D3), #16 (D3 P))
C=C1CC[C@H](OC(=O)CCCCCCCCCCCCCCC)C/C1=C/C=C1\CCC[C@]2(C)[C@@H]([C@H](C)CCCC(C)C)CC[C@@H]12 [Vitamin D3 P, vitamin D3 palmitate] | 492 IU/ml | 418 IU/ml and 421 IU/ml | 385 IU/ml and 400 IU/ml | 371 IU/ml | 338 IU/ml and 330 IU/ml | 286 IU/ml and 287 IU/ml | 232 IU/ml and 237 IU/ml | 214 IU/ml and 212 IU/ml | 424 IU/ml and 416 IU/ml | 396 IU/ml and 395 IU/ml | 396 IU/ml and 400 IU/ml | 374 IU/ml and 370 IU/ml | 341 IU/ml | 295 IU/ml and 302 IU/ml | 279 IU/ml and 276 IU/ml | – | – | –
C=C1CC[C@H](O)C/C1=C/C=C1\CCC[C@]2(C)[C@@H]([C@H](C)CCCC(C)C)CC[C@@H]12 [Vitamin D3, vitamin D3] | 60.8 IU/ml and 84.3 IU/ml | 439 IU/ml and 438 IU/ml | 441 IU/ml and 442 IU/ml | 411 IU/ml and 396 IU/ml | 390 IU/ml and 394 IU/ml | 333 IU/ml and 354 IU/ml | 310 IU/ml and 300 IU/ml | 245 IU/ml and 265 IU/ml | 450 IU/ml and 454 IU/ml | 420 IU/ml and 438 IU/ml | 369 IU/ml and 377 IU/ml | 317 IU/ml and 307 IU/ml | 193 IU/ml and 184 IU/ml | 110 IU/ml and 114 IU/ml | 87.5 IU/ml and 82.5 IU/ml | 100 IU/ml and 107 IU/ml | 170 | 107 IU/ml and 103 IU/ml

— patent US5478816A, “Liquid vitamin formulations containing vitamin D esters” (Bristol-Myers Squibb Company, priority 1993, dated 1995)
